From article doi:10.1101/2020.05.04.076190 (bioRxiv, 2020)

Target: the molecule itself
Assay: native gel or EMSA

B1: Max bHLH-LZ peptide (p21 isoform) (domain or fragment)
chain: not shown
Question: Does B1 bind?
Answer: binds
